# Assay results published in PMC11995724, “Antibiotic target discovery by integrated phenotypic and activity-based profiling of electrophilic fragments” (Cell chemical biology, 2025).
# Out of some 3,200 compounds screened, about 75 (2%) showed an effect of 50% or more. The list shows a part of the results.
# System: T1, S. aureus MSSA476
# T1 construct: MSSA476
# Set-up: species or system S. aureus MSSA476 (TSB) or V. cholerae SAD30 (LB); 384-well bacterial growth screen at 25 uM, OD600 relative to DMSO control
# Conditions: relative growth, OD600, TSB; 25 µM; inhibitor
row,SMILES,% of control remaining
1,"COc1cc(C=C(C#N)C(=O)NC2CCCCC2C)cc(OC)c1O (stereo not drawn) [9-H21, 2-cyano-3-(4-hydroxy-3,5-dimethoxyphenyl)-N-(2-methylcyclohexyl)prop-2-enamide]",104.27%
2,"N#CC(=Cc1cc(F)ccc1F)C(=O)Nc1ccc(F)cc1F [8-C10, 2-cyano-N-(2,4-difluorophenyl)-3-(2,5-difluorophenyl)prop-2-enamide]",122.49%
3,"C=CC(=O)NCc1ccc(C(=O)N2CCN(c3nc(C)n[nH]3)CC2)cc1 [2-F22, N-({4-[4-(3-methyl-1H-1,2,4-triazol-5-yl)piperazine-1-carbonyl]phenyl}methyl)prop-2-enamide]",99.2167%
4,"CC(Cl)C(=O)NCCc1ccc(F)cc1 (stereo not drawn) [6-F06, 2-chloro-N-[2-(4-fluorophenyl)ethyl]propanamide]",98.6829%
5,"COc1ccc(C=C(C#N)C(=O)NCc2ccccc2)cc1O [8-C09, N-benzyl-2-cyano-3-(3-hydroxy-4-methoxyphenyl)prop-2-enamide]",107.552%
6,"C=CC(=O)NCCC(=O)N1CCSC(C)CC1 (stereo not drawn) [2-K08, N-[3-(7-methyl-1,4-thiazepan-4-yl)-3-oxopropyl]prop-2-enamide]",90.8616%
7,"C=C(Cl)CN(C(=O)CCl)C1CCc2ccccc21 (stereo not drawn) [7-B18, 2-chloro-N-(2-chloroprop-2-en-1-yl)-N-(2,3-dihydro-1H-inden-1-yl)acetamide]",98.5871%
8,"COc1ccc(NC(=O)C(C#N)=Cc2cccc(O)c2)cc1OC [8-F09, 2-cyano-N-(3,4-dimethoxyphenyl)-3-(3-hydroxyphenyl)prop-2-enamide]",113.527%
9,"C=CC(=O)N1CCc2[nH]cnc2C1c1ccnn1C (stereo not drawn) [3-A07, 1-[4-(1-methyl-1H-pyrazol-5-yl)-1H,4H,5H,6H,7H-imidazo[4,5-c]pyridin-5-yl]prop-2-en-1-one]",86.7218%
10,"N#CC(=Cc1ccc(Cl)c([N+](=O)[O-])c1)C(=O)NCc1ccco1 [9-E15, 3-(4-chloro-3-nitrophenyl)-2-cyano-N-[(furan-2-yl)methyl]prop-2-enamide]",82.6966%
11,"C=CC(=O)Nc1cn(C)nc1OC(C)C [1-F14, N-[1-methyl-3-(propan-2-yloxy)-1H-pyrazol-4-yl]prop-2-enamide]",84.7473%
12,"Cc1cc(C(=O)CCl)c(C)n1-c1ccc(S(N)(=O)=O)cc1 [10-N14, 4-[3-(2-chloroacetyl)-2,5-dimethyl-1H-pyrrol-1-yl]benzene-1-sulfonamide]",121.875%
13,"C=CC(=O)NC(Cc1ccccc1)c1ncco1 (stereo not drawn) [1-B07, N-[1-(1,3-oxazol-2-yl)-2-phenylethyl]prop-2-enamide]",101.978%
14,"CC(Cl)C(=O)Nc1ccc([N+](=O)[O-])cc1Cl (stereo not drawn) [4-J17, 2-chloro-N-(2-chloro-4-nitrophenyl)propanamide]",105.955%
15,"N#Cc1ccc(C(=O)CCl)cc1 [10-F10, 4-(2-chloroacetyl)benzonitrile]",52.5%
16,"CC(Cl)C(=O)NC(C)C(c1ccccc1Cl)n1cccn1 (stereo not drawn) [6-P09, 2-chloro-N-[1-(2-chlorophenyl)-1-(1H-pyrazol-1-yl)propan-2-yl]propanamide]",77.1707%
17,"CC(Cl)C(=O)c1ccc(F)c(F)c1 (stereo not drawn) [10-A17, 2-chloro-1-(3,4-difluorophenyl)propan-1-one]",134.688%
18,"COc1ccc(NC(=O)N2CCSSCC2)cc1 [10-H21, N-(4-methoxyphenyl)-1,2,5-dithiazepane-5-carboxamide]",101.563%
19,"O=C(CCl)Nc1ccc(C(F)(F)F)cc1[N+](=O)[O-] [4-N08, 2-chloro-N-[2-nitro-4-(trifluoromethyl)phenyl]acetamide]",142.163%
20,"O=C(CCl)NC1Cc2ccccc2N(C(=O)C(F)(F)F)C1 (stereo not drawn) [7-L16, 2-chloro-N-[1-(2,2,2-trifluoroacetyl)-1,2,3,4-tetrahydroquinolin-3-yl]acetamide]",85.7143%
21,"Cc1cc(C(=O)CCl)c(C)c(C)c1C [10-I06, 2-chloro-1-(2,3,4,5-tetramethylphenyl)ethan-1-one]",130.313%
22,"Cc1ccc(CC(=O)CCl)cc1 [10-O13, 1-chloro-3-(4-methylphenyl)propan-2-one]",111.563%
23,"C=CC(=O)NCc1cc2cc(C)ccc2o1 [3-L14, N-[(5-methyl-1-benzofuran-2-yl)methyl]prop-2-enamide]",102.743%

row,SMILES,% of control remaining
1,"CC(Cl)C(=O)NCc1cc(C(F)F)nn1C (stereo not drawn) [6-H14, 2-chloro-N-{[3-(difluoromethyl)-1-methyl-1H-pyrazol-5-yl]methyl}propanamide]",97.6585%
2,"C=CC(=O)N1CCC(C(=O)NC2(CO)CCSCC2)CC1 [3-H07, N-[4-(hydroxymethyl)thian-4-yl]-1-(prop-2-enoyl)piperidine-4-carboxamide]",98.5633%
3,"C=CC(=O)N1CCOCC2(COCCN2C)C1 (stereo not drawn) [3-J14, 1-{1-methyl-4,8-dioxa-1,11-diazaspiro[5.6]dodecan-11-yl}prop-2-en-1-one]",109.012%
4,"O=C(CCl)N1N=C(c2cccs2)CC1c1ccc(F)cc1 (stereo not drawn) [4-O20, 2-chloro-1-[5-(4-fluorophenyl)-3-(thiophen-2-yl)-4,5-dihydro-1H-pyrazol-1-yl]ethan-1-one]",137.589%
5,"COc1ccccc1N=Nc1ccc(NC(=O)CCl)cc1C [6-J06, 2-chloro-N-{4-[2-(2-methoxyphenyl)diazen-1-yl]-3-methylphenyl}acetamide]",112.341%
6,"C=CC(=O)Nc1ncc(C2CCCC(C)C2)s1 (stereo not drawn) [1-J16, N-[5-(3-methylcyclohexyl)-1,3-thiazol-2-yl]prop-2-enamide]",146.286%
7,"COCc1nc(C2CCCCCN2C(=O)CCl)no1 (stereo not drawn) [5-B07, 2-chloro-1-{2-[5-(methoxymethyl)-1,2,4-oxadiazol-3-yl]azepan-1-yl}ethan-1-one]",111.84%
8,"Cc1ccc(N2C(=O)C=CC2=O)c(C)c1 [10-N07, 1-(2,4-dimethylphenyl)-2,5-dihydro-1H-pyrrole-2,5-dione]",77.8125%
9,"CC(Cl)C(=O)N1CCCC(NS(=O)(=O)c2cccc(F)c2)C1 (stereo not drawn) [7-C13, N-[1-(2-chloropropanoyl)piperidin-3-yl]-3-fluorobenzene-1-sulfonamide]",102.355%
10,"NC(=O)Nc1ccc(C(=O)CCl)cc1 [10-J07, [4-(2-chloroacetyl)phenyl]urea]",55.625%
11,"C=CC(=O)N1CCC(C(=O)NOC2CCCC2)(c2ccccc2)CC1 [3-K06, N-(cyclopentyloxy)-4-phenyl-1-(prop-2-enoyl)piperidine-4-carboxamide]",99.6082%
12,"C=CC(=O)N(C)Cc1cncn1C [2-D09, N-methyl-N-[(1-methyl-1H-imidazol-5-yl)methyl]prop-2-enamide]",106.527%
13,"CC(C)Cn1c(N)c(C(=O)CCl)c(=O)n(C)c1=O [10-M12, 6-amino-5-(2-chloroacetyl)-3-methyl-1-(2-methylpropyl)-1,2,3,4-tetrahydropyrimidine-2,4-dione]",108.75%
14,"O=C(CCl)NCc1nn(-c2ccccc2)c2c1CCC2 [7-B06, 2-chloro-N-({1-phenyl-1H,4H,5H,6H-cyclopenta[c]pyrazol-3-yl}methyl)acetamide]",77.551%
15,"CC(NC(=O)C(C#N)=Cc1cccc(F)c1)c1ccccc1 (stereo not drawn) [8-L18, 2-cyano-3-(3-fluorophenyl)-N-(1-phenylethyl)prop-2-enamide]",72.6971%
16,"C=CC(=O)NC1(c2nccc(C(F)(F)F)n2)CC1 [2-D07, N-{1-[4-(trifluoromethyl)pyrimidin-2-yl]cyclopropyl}prop-2-enamide]",113.142%
17,"O=C(CCl)NCc1ccccc1Cn1cccn1 [5-P06, 2-chloro-N-({2-[(1H-pyrazol-1-yl)methyl]phenyl}methyl)acetamide]",89.9818%
18,"C=CC(=O)Nc1cc(NC(=O)C2CCC2)ccc1F [2-E10, N-[4-fluoro-3-(prop-2-enamido)phenyl]cyclobutanecarboxamide]",111.749%
19,"Cc1ccc(C(=O)c2c(NC(=O)CCl)sc3c2CCCC3)cc1 [6-A12, 2-chloro-N-[3-(4-methylbenzoyl)-4,5,6,7-tetrahydro-1-benzothiophen-2-yl]acetamide]",138.976%
20,"CN(CCc1ccccc1O)C(=O)CCl [7-P21, 2-chloro-N-[2-(2-hydroxyphenyl)ethyl]-N-methylacetamide]",103.611%
21,"CN(C1CCCCC1)S(=O)(=O)c1ccccc1NC(=O)CCl [5-N10, 2-chloro-N-{2-[cyclohexyl(methyl)sulfamoyl]phenyl}acetamide]",179.599%
22,"CC(c1ccc(C(F)(F)F)cc1F)N(C)C(=O)CCl (stereo not drawn) [7-P18, 2-chloro-N-{1-[2-fluoro-4-(trifluoromethyl)phenyl]ethyl}-N-methylacetamide]",94.5055%
